Laboratory results published in the RNAGym collection of RNA variant scans (doi:10.1073/pnas.2313332121).
This sample is rich in variants without activity.

B1: TPR 5TU (parent)
chain: GGAUCUUCUCGAUCUAACAAAAAAGACAAAUCUGCCACAAAGCUUGAGAGCAUCUUCGGAUGCAGAGGCGGCAGCCUUCGGUGGCGCGAUAGCGCCAACGUUCUCAACUAUGACACGCAAAACGCGUGCUCCGUUGAAUGGAGUUUAUCAUG

Variants of: B1
Experiment: polymerase ribozyme fitness, log enrichment relative to wild type (log ratio); higher = more active; in vitro selection for triplet polymerase activity
Outline: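 Each subunit of a heterodimeric triplet polymerase ribozyme was mutagenized into a library by PCR, transcribed, and subjected to one round of in vitro selection, run in triplicate. Libraries were annealed with a biotinylated primer, the partner subunit and triplets, incubated frozen at −7 °C, and extended constructs were gel-excised, captured on streptavidin beads and recovered by RT-PCR. Input and output libraries were sequenced on Illumina, keeping genotypes with ≥10 input reads and ≥1 read per output. Fitness is log base 2 of genotype enrichment divided by wild-type enrichment, from inverse-variance-weighted replicate averages.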

Compared with C32U G59A, C32U G59A C93U U104G U148C is lower in “polymerase ribozyme fitness (log ratio)” value: -1.99 for the first, ≤ -4.2 for the second.

Going from C32U G59C G84A to C32U G59U G81A G126U G141U A142U, the “polymerase ribozyme fitness (log ratio)” value falls from -1.81 to ≤ -4.2.

C32U G62U A91C and C32U G68A C85A G94A U139A A147C cannot be ordered by “polymerase ribozyme fitness (log ratio)” value: ≤ -4.2 for the first, ≤ -4.2 for the second.

C32U G68U C93U A147U and C32U G80C C87A G133U cannot be ordered by “polymerase ribozyme fitness (log ratio)” value: ≤ -4.2 for the first, ≤ -4.2 for the second.

C32U G84A G112C C116U and C32U G88U G140C A142C cannot be ordered by “polymerase ribozyme fitness (log ratio)” value: ≤ -4.2 for the first, ≤ -4.2 for the second.

C32U G94C A106C and C32U U33C A41C C75A U139G G140C cannot be ordered by “polymerase ribozyme fitness (log ratio)” value: ≤ -4.2 for the first, ≤ -4.2 for the second.

C32U U33G A41C C51U C118U and C32U U44A C72G C85U G86U U104G A110G cannot be ordered by “polymerase ribozyme fitness (log ratio)” value: ≤ -4.2 for the first, ≤ -4.2 for the second.

C32U U44A G50U U78C G83U A120G and C32U U44G C54U C85A A113U C116G cannot be ordered by “polymerase ribozyme fitness (log ratio)” value: ≤ -4.2 for the first, ≤ -4.2 for the second.

First: C32U U45A C54A G84A C85A G92A C93A
Second: C32U U55A
The “polymerase ribozyme fitness (log ratio)” value of the first is lower: ≤ -4.2 for the first, -1.62 for the second.

Compared with C32U U55A A91C U102G, C32U U55A C63U C118A is higher in “polymerase ribozyme fitness (log ratio)” value: ≤ -4.2 for the first, -3.08 for the second.

C32U U56A A66G C85G A120G G136U and C32U U56A G58A G68A C76A C93A cannot be ordered by “polymerase ribozyme fitness (log ratio)” value: ≤ -4.2 for the first, ≤ -4.2 for the second.

C32U U56G C75U G81C G83U C85U U101G and C32U U61A C93U G128U cannot be ordered by “polymerase ribozyme fitness (log ratio)” value: ≤ -4.2 for the first, ≤ -4.2 for the second.

C32U U61A G74A G80C C93U U104A U127A U130C U135G G140U and C32U U61A G74U C76A U82G U90C C95G cannot be ordered by “polymerase ribozyme fitness (log ratio)” value: ≤ -4.2 for the first, ≤ -4.2 for the second.

C32U U82G A107C and C32U U102G G136A cannot be ordered by “polymerase ribozyme fitness (log ratio)” value: ≤ -4.2 for the first, ≤ -4.2 for the second.

C32U U135G and U33A A39C U55A G62A cannot be ordered by “polymerase ribozyme fitness (log ratio)” value: ≤ -4.2 for the first, ≤ -4.2 for the second.

U33A A49C C76G C87G U90A C149A and U33A A49U C57U C63U G68A C87G C118A A119G C123A C131G cannot be ordered by “polymerase ribozyme fitness (log ratio)” value: ≤ -4.2 for the first, ≤ -4.2 for the second.

U33A A49U G94U A119U U148A and U33A A52G C93U C96A U134A A142C cannot be ordered by “polymerase ribozyme fitness (log ratio)” value: ≤ -4.2 for the first, ≤ -4.2 for the second.

U33A A52U G86U C87A U109A and U33A A60C G74A A137C A150U cannot be ordered by “polymerase ribozyme fitness (log ratio)” value: ≤ -4.2 for the first, ≤ -4.2 for the second.

U33A A60C G83A C87G A137U and U33A C38G A52U C87G G136A cannot be ordered by “polymerase ribozyme fitness (log ratio)” value: ≤ -4.2 for the first, ≤ -4.2 for the second.

Compared with U33A C43A C76U G92A G117U, U33A C75G C85A G143U is lower in “polymerase ribozyme fitness (log ratio)” value: -3.86 for the first, ≤ -4.2 for the second.

First: U33A C75G U78A U101A G152U
Second: U33A C93A
The “polymerase ribozyme fitness (log ratio)” value of the first is higher: -4.02 for the first, ≤ -4.2 for the second.

U33A G58C G92A G136U and U33A G59A A106C A113U G124U cannot be ordered by “polymerase ribozyme fitness (log ratio)” value: ≤ -4.2 for the first, ≤ -4.2 for the second.

U33A G62C C85U A137U and U33A G65C G71A G92C A98G G100U cannot be ordered by “polymerase ribozyme fitness (log ratio)” value: ≤ -4.2 for the first, ≤ -4.2 for the second.

U33A G67U A97G A120G and U33A G68C C85U C96A cannot be ordered by “polymerase ribozyme fitness (log ratio)” value: ≤ -4.2 for the first, ≤ -4.2 for the second.

U33A G70A U77C C99U and U33A G71A C85G A138C G140U cannot be ordered by “polymerase ribozyme fitness (log ratio)” value: ≤ -4.2 for the first, ≤ -4.2 for the second.

U33A G74C G88A A91G G141A and U33A G74C U104A G126U G143U cannot be ordered by “polymerase ribozyme fitness (log ratio)” value: ≤ -4.2 for the first, ≤ -4.2 for the second.

U33A G81U U82G G92U G152A and U33A G83A C95U U151C cannot be ordered by “polymerase ribozyme fitness (log ratio)” value: ≤ -4.2 for the first, ≤ -4.2 for the second.

U33A G84A A97U A110U G143U U144A and U33A G84A C149G cannot be ordered by “polymerase ribozyme fitness (log ratio)” value: ≤ -4.2 for the first, ≤ -4.2 for the second.

U33A G88U A91C C103A C105U C125G and U33A G88U A120U cannot be ordered by “polymerase ribozyme fitness (log ratio)” value: ≤ -4.2 for the first, ≤ -4.2 for the second.

U33A G94A G136U G141C and U33A U44G A107G A122G C132U cannot be ordered by “polymerase ribozyme fitness (log ratio)” value: ≤ -4.2 for the first, ≤ -4.2 for the second.

U33A U45A G68U C87A U127C A137U and U33A U45A G81C G92U U146C U151A cannot be ordered by “polymerase ribozyme fitness (log ratio)” value: ≤ -4.2 for the first, ≤ -4.2 for the second.

U33A U45G C69G C76G C85U C93U and U33A U53A C79A G84U A89G A107C A137U cannot be ordered by “polymerase ribozyme fitness (log ratio)” value: ≤ -4.2 for the first, ≤ -4.2 for the second.

U33A U53A C87A C125U and U33A U53A U56A G80A C95G C99U C132A cannot be ordered by “polymerase ribozyme fitness (log ratio)” value: ≤ -4.2 for the first, ≤ -4.2 for the second.

U33A U55A C87A U104C A122G G143A and U33A U55A G83A G126U cannot be ordered by “polymerase ribozyme fitness (log ratio)” value: ≤ -4.2 for the first, ≤ -4.2 for the second.

U33A U56A C87G U102A U135C and U33A U56A G80C G94A G100U U135A cannot be ordered by “polymerase ribozyme fitness (log ratio)” value: ≤ -4.2 for the first, ≤ -4.2 for the second.

U33A U56A G94A and U33A U77G G117A U135C U139C C149U cannot be ordered by “polymerase ribozyme fitness (log ratio)” value: ≤ -4.2 for the first, ≤ -4.2 for the second.

U33A U102A A106U and U33C A39C G48A U82C A113G C114U U145C cannot be ordered by “polymerase ribozyme fitness (log ratio)” value: ≤ -4.2 for the first, ≤ -4.2 for the second.

U33C A39C G62C G88A C118G C123A and U33C A40U A137G G152C cannot be ordered by “polymerase ribozyme fitness (log ratio)” value: ≤ -4.2 for the first, ≤ -4.2 for the second.

U33C A47C G100A U144A and U33C A60G G71A C85G G88U U148G cannot be ordered by “polymerase ribozyme fitness (log ratio)” value: ≤ -4.2 for the first, ≤ -4.2 for the second.

U33C A64U U90C G92U G94A U139A and U33C A122G U127G cannot be ordered by “polymerase ribozyme fitness (log ratio)” value: ≤ -4.2 for the first, ≤ -4.2 for the second.

U33C C36U A113U U148A and U33C C36U C54A C72U G84U C85A U148G cannot be ordered by “polymerase ribozyme fitness (log ratio)” value: ≤ -4.2 for the first, ≤ -4.2 for the second.

For U33C C51U G59C C63A A120C C125G U134G, the “polymerase ribozyme fitness (log ratio)” value was ≤ -4.2.
